According to paper PMC12136788:
The other results are listed elsewhere or left out.

T1: UNK ZnF1-6 (called full-length) (human, UniProt Q9C0B0 30-357)
T1 sequence: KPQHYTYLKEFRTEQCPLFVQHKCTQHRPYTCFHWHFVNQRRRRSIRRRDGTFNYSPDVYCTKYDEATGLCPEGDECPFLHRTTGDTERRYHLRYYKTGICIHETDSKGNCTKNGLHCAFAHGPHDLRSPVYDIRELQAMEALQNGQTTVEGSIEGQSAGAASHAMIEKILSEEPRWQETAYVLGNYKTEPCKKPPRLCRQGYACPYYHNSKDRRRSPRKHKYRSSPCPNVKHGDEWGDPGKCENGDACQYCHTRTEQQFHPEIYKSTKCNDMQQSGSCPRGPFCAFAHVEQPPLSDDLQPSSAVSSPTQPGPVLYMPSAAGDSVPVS

B1: chr3:185511523:185511697:-|CDS|ENSG00000163898|control|control|control (ssRNA)
RNA: GGGAGUUCUACAGUCCGACGAUCUAAUCAAGAUCUGGAUAAAGUGGCUGCAAUUUCCUUGAUGUUCUCUACAGGAUCUCUAAUAGGCCCAAGGUACAAGCUCAGGAUUCUCCGAAUGAAGUUAAGGUCCCUUGCCCAUCCGGACAACAGAGGAUUGAGCAUCA
B2: chr3:43366700:43366801:-|3pUTR|ENSG00000160746|unk|total|mutant (ssRNA)
RNA: GGGAGUUCUACAGUCCGACGAUCACGGUGGCAGGGGGGGUACCCGGGGCAGCAUCGUGGCUCCUGAACCCAGACCCAAUGCUCCGCCAAACGAAGUGGCUCCCAUGUGGCAAGCACCCUUCUCAGUUUCGCAGUGGCUUGGCUCAACAGAGGAUUGAGCAUCA
B3: chr1:43997547:43997739:-|CDS|ENSG00000196517|control|control|control (ssRNA)
RNA: GGGAGUUCUACAGUCCGACGAUCAAGCAGAGACUGGGGCCCUGCCCUCCUGGAGCACCGGACAGGGCGCUACGCCCCCACCAUAGCCCCCUCUCCUGAGGACGGCUUCGAGGUCCAGCCACUGCACCCGGACAAGGCGCAGAUCAACAGAGGAUUGAGCAUCA
B4: chr12:108522223:108522324:-|3pUTR|ENSG00000075856|msi1|total|mutant (ssRNA)
RNA: GGGAGUUCUACAGUCCGACGAUCUCAGUCGGGUUUUCUAUAUUUUUUUAACUUAACAUUUUUUAAUAUAACCGAUUAAAAAGCCGACAGAACAGUAAAAUAAACUCCUGUGUGCCUACCAUUCAGCUUCCAGCAUUCCUCAACCAACAGAGGAUUGAGCAUCA
B5: chr10:11763304:11763405:+|CDS|ENSG00000134463|unk|FALSE|unique (ssRNA)
RNA: GGGAGUUCUACAGUCCGACGAUCGGGCUGCUUAGCAAGGUGGUGCCAGAGGCGGAGCUGCAGGAGGAGACCAUGCGGAUCGCUAGGAAGAUCGCAUCGCUGAGCCGUCCGGUGGUGUCCCUGGGCAAAGCCACCUUCUACAAGCAACAGAGGAUUGAGCAUCA
B6: ENSG00000120265:stop:overlap|stop_codon|ENSG00000120265|stop_codon|NA|stop_codon (ssRNA)
RNA: GGGAGUUCUACAGUCCGACGAUCUAGCUGACUCUACAGGAGAAGAAAUUUUUAGCUGCCGUACUUUAGAGGGACUGUUUUACUAGAUGAGCACGUUACCCUUUGGCAUGAUUAUAUUUUCUAAUUUUAACUGCUGGGUGACAGCAACAGAGGAUUGAGCAUCA
B7: ENSG00000198589:be:win_4601|CDS|ENSG00000198589|bound_else_gene|NA|bound_elsewhere_windowed (ssRNA)
RNA: GGGAGUUCUACAGUCCGACGAUCUGGCAGUAGUAUACUUUAUCUCUGUUCUUAUGGUCUCCAAGUACAGAGACAUUUUGGAACCCCAAAAUGAAAGGCAUAGCCAGUCAUGUACAGAAACUGGCAGUGAAAAUGAGAAUGUAUCAACAGAGGAUUGAGCAUCA
B8: chr15:64682558:64682659:+|3pUTR|ENSG00000180357|unk|FALSE|bound_elsewhere (ssRNA)
RNA: GGGAGUUCUACAGUCCGACGAUCCACACUGGUCUUGCCUCUUCUUUUCCACUGCUUGGCUCUUAAGCCUCAGGCAGAUAAACUAGUAUUCCCCCCAGCUUGGGGAACCUUGGAGUCUGCCAGGUCACCUUAGGGCAAGGCCCACAACAGAGGAUUGAGCAUCA
B9: chr19:13098382:13098626:+|3pUTR|ENSG00000008441|msi1|total|mutant (ssRNA)
RNA: GGGAGUUCUACAGUCCGACGAUCACGCAGUAUAUACGAGUAUCUCUAUAUACCGUACUAAUGGAUUUGGUGUGCUUCCCCCUCCGCGUCCCCCUCCCUCUGCUCCUCCUCCUUCAGCCUGGUCUCCCCCUCUUCUCUGCCCUCCAACAGAGGAUUGAGCAUCA
B10: chr9:122916526:122916627:-|3pUTR|ENSG00000171448|unk|total|mutant (ssRNA)
RNA: GGGAGUUCUACAGUCCGACGAUCAUGCUUCCCCGCAUUGUGAUUUUUACAUGAUCCAGCCAAAGAGUACCAAUUCUAUGCAACCGUGAGACUCUACCCUGUCAACCAAACAGCAUUUUUUGGUAUUUUCUGUCAACAUCAUUUCAACAGAGGAUUGAGCAUCA
B11: chr1:202147012:202148699:-|three_prime_utr|ENSG00000143851|control|control|control (ssRNA)
RNA: GGGAGUUCUACAGUCCGACGAUCAAGUGGGCCGAGUGAUCUGGGGGUACCCCUUGGGUUGGUGUGGGGAAGGAGUGCCUCCUUAGUGGUGCUUGCAGUCACAGGAAGCAGCAGCAGUAAGGACAAGGGGCCGGAUUCCAGGUCCAACAGAGGAUUGAGCAUCA
B12: ENSG00000198589:be:win_3051|CDS|ENSG00000198589|bound_else_gene|NA|bound_elsewhere_windowed (ssRNA)
RNA: GGGAGUUCUACAGUCCGACGAUCAGAAAUGAAAGCUGAGCAAGAAAAUCAGGAGUUACCAGAUGAAGGCACUUUGGAAGAAACACUGACAAAUGAGACAAGGAAUGCAGAUGAUUUAGAAGUAUCUUCUGACAUAAUAGAAGCCAACAGAGGAUUGAGCAUCA
B13: chr2:210024032:210024201:-|CDS|ENSG00000144445|control|control|control (ssRNA)
RNA: GGGAGUUCUACAGUCCGACGAUCUACAGUAAAAAUGUUGAAGGACAGGACUUGCUUUUGAAAGAAUACCCUAAUAACUUCAGUAGCAGUCAGCAAUGUGCUGCUGCAAGUCCUCCUGGGCUUCCUUCAGAGAACCAGGAUCUGCAACAGAGGAUUGAGCAUCA
B14: chr7:135927258:135927359:-|3pUTR|ENSG00000105887|msi1_unk|total|mutant (ssRNA)
RNA: GGGAGUUCUACAGUCCGACGAUCCAGCUUCAGACUGUUAUCUACCGGCUUAUCGUUCAAAUACAGCACUUGAAUAUCCCAAGCCGUUCUUCUACGCACCGCUCACCUUUCUAAACCCAGUUAAGCAUGGAAGAGAGGCCGCCGCAACAGAGGAUUGAGCAUCA

Each binder was assayed against T1, UNK ZnF1-6 (called full-length) (assay: nsRBNS (natural sequence RNA bind-n-seq); RBNS binding buffer (assumed for nsRBNS): 25 mM Tris pH 7.5, 150 mM KCl, 3 mM MgCl2, 0.01% Triton X-100, 500 ug/ml BSA, 20 U/ml SUPERase-In, 4 C; UNK is unkempt and MSI1 is Musashi-1; names of the RNAs are library labels; protein concentration not given here; high values mean tight binding).

Binder | binding signal
B1 | 0.287 enrichment R
B2 | 1.1 enrichment R
B3 | 0.841 enrichment R
B4 | 0.955 enrichment R
B5 | 0.722 enrichment R
B6 | 1.29 enrichment R
B7 | 0.424 enrichment R
B8 | 0.511 enrichment R
B9 | 1.21 enrichment R
B10 | 0.263 enrichment R
B11 | 1.11 enrichment R
B12 | 0.542 enrichment R
B13 | 0.525 enrichment R
B14 | 0.465 enrichment R
